From publication PMC6919601, “Identification of Plasmodium dipeptidyl aminopeptidase allosteric inhibitors by high throughput screening” (PLoS ONE, 2019)
The campaign covered roughly 110,000 compounds. About 230 (0.21%) showed an effect of 50% or more. The list shows a part of the results.

Molecular target: DPAP1 (Plasmodium falciparum, UniProt Q8IIJ9)
Assay: primary screen, percent inhibition; read by cleavage of a fluorogenic dipeptide substrate; higher = more effect of the substance
Parameters: species or system P. falciparum D10 trophozoite lysates; single well
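Note: 30 min substrate incubation versus DMSO and 10 µM JCP410 controls.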

Chain of DPAP1 (Q8IIJ9 whole entry, looked up): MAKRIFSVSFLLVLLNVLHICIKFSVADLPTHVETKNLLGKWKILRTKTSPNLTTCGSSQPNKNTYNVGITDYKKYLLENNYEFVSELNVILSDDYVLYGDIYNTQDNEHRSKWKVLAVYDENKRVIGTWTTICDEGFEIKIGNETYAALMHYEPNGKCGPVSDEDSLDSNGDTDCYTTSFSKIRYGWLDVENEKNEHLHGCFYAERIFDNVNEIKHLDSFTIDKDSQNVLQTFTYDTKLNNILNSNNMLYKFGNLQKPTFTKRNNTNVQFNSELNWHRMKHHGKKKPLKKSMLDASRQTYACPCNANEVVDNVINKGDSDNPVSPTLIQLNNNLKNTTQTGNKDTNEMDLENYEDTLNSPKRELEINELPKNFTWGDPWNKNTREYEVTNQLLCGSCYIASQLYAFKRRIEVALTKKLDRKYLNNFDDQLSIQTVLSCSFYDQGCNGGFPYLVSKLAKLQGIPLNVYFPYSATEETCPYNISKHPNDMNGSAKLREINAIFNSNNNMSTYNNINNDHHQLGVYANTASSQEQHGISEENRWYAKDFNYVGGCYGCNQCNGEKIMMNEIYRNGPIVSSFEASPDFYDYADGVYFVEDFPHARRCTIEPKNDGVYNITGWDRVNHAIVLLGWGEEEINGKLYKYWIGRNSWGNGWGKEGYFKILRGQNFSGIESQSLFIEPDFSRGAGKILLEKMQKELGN

Structure (SMILES)	% Inhibition @ 10 uM [%]
CC(C)(C)NS(=O)(=O)c1ccc(NC(=O)CS(=O)(=O)Cc2ccccc2)cc1	-1.06
Cc1ccccc1OC(C)C(=O)Nc1ccc(O)cc1 (centres unmarked)	1.28
COc1ccccc1NC(=O)Nc1ccc(Cl)c(Cl)c1	-2.18
CC(CC(=O)O)C(C)c1ccccc1 (centres unmarked)	-0.0505
CCn1c(C(=O)N2CCC(C(=O)NCCCSC3CCCCC3)CC2)cc2sccc21	4.95
CCCNC(=O)C1CC(=O)N(c2ccc(Cl)cc2)C1 (centres unmarked)	-7.91
CS(=O)(=O)N(CC(=O)N1CCOCC1)Cc1ccccc1	2.95
COc1cccc(CNC(=O)CN2N=C(c3ccccc3)CCC2=O)c1	-4.83
CCCNC(=O)c1ccc(C)c([N+](=O)[O-])c1	-4.91
CCc1[nH]nc2c1C(c1c[nH]c3ccccc13)C(C#N)=C(N)O2 (centres unmarked)	3.99
O=C(CN1C(=O)c2ccccc2C1=O)N1CCN(c2nnc(-c3ccccc3)c3ccccc23)CC1	0.778
O=C(CCN1N=C(c2ccccc2)CCC1=O)NCC1COc2ccccc2O1 (centres unmarked)	2.35
Cc1cc(OCC(=O)Nc2ccccc2C(N)=O)c(C(C)C)cc1Br	-1.02
CCO/C(O)=C1\C(C)=Nc2nnnn2C1c1ccc(OCc2ccc(C)cc2)cc1 (centres unmarked)	3.6
Oc1nc(-c2ccccc2)c2ccccc2n1	0.247
c1ccc2c(CN3CCOCC3)csc2c1	20.5
CCn1c(C(=O)N2CCCC(C(=O)NC3CCC(C)CC3)C2)cc2sccc21 (centres unmarked)	-6.77
CCCOC(=O)c1c(N)sc2c1CCC(C)C2 (centres unmarked)	33
COc1cc(C2C(C#N)=C(N)N3C(=O)c4ccccc4SC3=C2C#N)cc(OC)c1OC (centres unmarked)	-0.92
COc1cccc(C2=NOC(C(=O)N3CCN(C(c4ccccc4)c4ccccc4)CC3)C2)c1OC (centres unmarked)	4.41
COc1ccc(C)cc1NC(=O)CNS(=O)(=O)c1ccccc1	0.812
COc1ccc(-c2onc(C)c2C)cc1S(=O)(=O)N1CCC(CN2CCc3ccccc3C2)CC1	5.98
Cc1ccc(NC(=O)CN2C(=O)S/C(=C/c3ccncc3)C2=O)cc1	12.4
CC(C)CC(=O)Nc1cccc(-c2cn3ccsc3n2)c1	-0.587
COc1ccc(CSc2nc(N)c3c4c(sc3n2)COC(C)(C)C4)cc1	-0.386

Structure (SMILES)	% Inhibition @ 10 uM [%]
COC(=O)C1=CN(Cc2ccc(OC)c(OC)c2)C=C(C(=O)OC)C1c1ccccc1Cl	0.219
CCC(CC)COC(=O)C1=C(C)NC(=O)CC1c1cccc(Cl)c1 (centres unmarked)	8.46
Cc1cc(Br)ccc1OCC(=O)N1CCCc2ccccc21	-0.95
COc1ccc(CN2CCC(Cc3ccccc3)CC2)cc1OC	4.73
O=C1c2ccccc2-c2nc3cc(Br)cnc3nc21	-1.26
c1cc2n(c1)CCNC2	4.73
CCCc1c(O)nc(Nc2nc(C)c3cc(C)cc(C)c3n2)nc1O	1.52
COC(=O)c1cnn2c3c(c(C)nc12)CCCC3	-2.14
COCCNC(=O)c1ccc(CS(=O)(=O)c2ccc(OC)cc2)o1	2.14
Cc1ccc(-n2c3c(c(=O)[nH]c2=O)C(NC(=O)CCc2ccccc2)(C(F)(F)F)C(=O)N3)cc1 (centres unmarked)	2.49
COc1ccc(S(=O)(=O)N(Cc2ccccc2)C(C)C)cc1	0.247
Oc1nc(N2CCOCC2)nc2ncn(Cc3ccccc3)c12	-3.52
CCOc1ccc(S(=O)(=O)N(CC(=O)N[C@@H]2C[C@H]3CC[C@@H]2C3)c2ccc(C)cc2)cc1	3.09
O=C(C1=C(O)C(=O)N(c2nccs2)C1c1ccccc1F)c1ccccc1 (centres unmarked)	-10.9
Cc1cccn2c(=O)c3cc(C(=O)NCc4cccnc4)n(C)c3nc12	0.331
CCCCNC(=O)CN1CCN(Cc2cccc(Cl)c2)C1=O	-4.16
O=C(CCN1C(=O)c2ccccc2Sc2ncccc21)NC1CCCCCC1	-4.76
O=S(=O)(Cc1ccccc1Cl)N1CCOC(COc2ccccc2)C1 (centres unmarked)	0.895
N#Cc1c(O)nc(O)c2c1CCN(Cc1ccccc1)C2	5.31
COc1ccc(C2C(C#N)=C(N)OC3=C2C(=O)CC(C)(C)C3)cc1C (centres unmarked)	-4.94
CCCCN(CCCC)CCn1cnc2c3ccc(OC)cc3nc-2c1O	-0.0235
O=C1/C(=C/c2ccco2)Cc2ccccc21	8.24
O=C(CSc1nnc(-c2ccco2)o1)c1ccc(Br)cc1	-8.04
Cn1c(=O)[nH]c(=O)c2c1nc(Sc1nc3ccccc3[nH]1)n2CCCc1ccccc1	9.89
COc1ccc(CCNCc2cc3ccc(C)cc3nc2O)cc1OC	-0.946

Structure (SMILES)	% Inhibition @ 10 uM [%]
CCN1C(=O)N/C(=C/c2ccc(N(C)C)cc2)C1=O	-21.3
CCNC(=S)N1CCc2cc(OC)c(OC)cc2C1COc1ccc(OC)cc1 (centres unmarked)	-0.363
O=C(O)c1ccccc1C(=O)Nc1cc([N+](=O)[O-])ccc1Cl	-0.969
CC1CC(C)CN(c2nc3c(c(=O)[nH]c(=O)n3C)n2CCSc2nc3ccccc3o2)C1 (centres unmarked)	2.06
CC(C)C[C@H](NC(=O)c1nccc2ccccc12)C(=O)NCC#N	-5.64
COc1ccc(OC)c(C2C3=C(O)CC(C)(C)CC3=Nc3nc(SC)nn32)c1 (centres unmarked)	-11.1
COc1ccc(N(CC(=O)Nc2cc(C)ccc2C)S(=O)(=O)c2ccccc2)cc1	0.324
O=C(NCCCN1CCOCC1)c1cc(-c2ccc(Br)cc2)nc2ccccc12	-1.1
CC(C)(NC(=O)[C@H](CS(=O)(=O)Cc1ccccc1OC(F)F)NC(=O)N1CCOCC1)C(=O)c1nc2ncccc2o1	-5.2
c1coc(-c2nc3ccccc3nc2-c2ccco2)c1	3.32
Cn1ncc(Cl)c1C(=O)NC12CC3CC(CC(C3)C1)C2	-3.19
COc1ccc2c(Sc3ccc(C)cc3)c(C(=O)NCCCOC(C)C)[nH]c2c1	3.39
CCOc1ccc(CNCc2c(C(=O)O)c(C)n(Cc3ccccc3F)c2C)cc1	-0.439
CCOC(=O)c1[nH]c2ccccc2c1NC(=O)c1cc2ccccc2oc1=O	2.17
CCOC(=O)C1=C(C)N=c2s/c(=C\c3ccc(F)cc3)c(=O)n2C1c1ccccc1Cl (centres unmarked)	-7.19
CC(=O)c1c(CN(C)C23CC4CC(CC(C4)C2)C3)nc2n(Cc3ccccc3)c3ccccc3n12	-4.11
CCCCN(Cc1ccccc1)Cc1cc(OC)c(OC)cc1[N+](=O)[O-]	-3.57
Cc1ccnc(NC(=O)Cn2cc(S(=O)(=O)N3CCCC3)c(S(=O)(=O)N3CCCC3)c2)c1	-6.07
O=C(c1ccccc1)N1CCN(c2nc3c(O)ncnc3[nH]2)CC1	-5.11
CN(C)c1ccc(C2=NN(c3ccc([N+](=O)[O-])cc3)C(c3ccccc3)C2)cc1 (centres unmarked)	-5.96
CCn1cc(C2=NOC(C(=O)NCc3ccccc3)C2)c(C)n1 (centres unmarked)	-1.37
Cc1ccc(CNC(=O)c2cnn3c(O)cc(CSc4ccc(Cl)cc4)nc23)cc1	-5.8
O=C(NCCN1CCOCC1)c1cc2nc(-c3ccccc3)cc(-c3ccccc3)n2n1	0.221
CC(C)c1c(O)cc(-c2cccs2)n(-c2ccc(Cl)cc2)c1=O	0.658
Cc1cc(C)n(Cc2ccc(C(=O)NC(C)C3CC4CCC3C4)o2)n1 (centres unmarked)	-4.06

Structure (SMILES)	% Inhibition @ 10 uM [%]
Cc1ccc(C2C(=O)N(C3CCCCC3)CC(=O)N2C2CCCCC2)cc1 (centres unmarked)	-2.14
Cc1ccccc1NC(=O)CSc1ncccn1	0.992
CCOC(=O)C1=C(N)Oc2cc(O)ccc2C1c1ccc(F)cc1F (centres unmarked)	4.97
Cc1ccc2oc(=O)c3cc(C(=O)Nc4cnc5ccccc5c4)sc3c2c1	1.66
CC(C)C[C@H](NC(=O)c1cc(-c2ccccc2)c(Cl)s1)C(=O)NCC#N	1.35
COc1ccccc1C(=O)Nc1nc2c(C)cccc2s1	5.04
Cc1ccc2nc(Cl)c3nnnn3c2c1	1.86
OC(COc1ccccc1Cl)CN1CCN(CC(O)COc2ccccc2Cl)CC1 (centres unmarked)	0.131
CC1(C)Cc2c(sc3[nH]c(=S)[nH]c(=O)c23)CO1	8.27
O=C1c2cccc3cccc(c23)C(=O)N1c1nc2c(ccc3ccccc32)s1	3.6
NC(=O)CSc1nc2ncccc2c(=O)n1Cc1ccccc1	-5.27
Cc1c(CNC2CCCC2)c(C(=O)O)c(C)n1Cc1ccc(F)cc1Cl	-1.92
CCOCCCNC(=O)Cn1ncc2c(C)n(Cc3ccc(C)cc3)c(C)c2c1=O	-0.447
CCOC(=O)N1CCC(NC(=O)CNC(=O)c2ccco2)CC1	-4.62
O=C(NCCc1nc2ccccc2[nH]1)c1ccc(Cl)cc1Cl	5.7
COC(=O)c1ccc(COc2ccc(Cl)c(C)c2)o1	-1.33
CCC(C)(C)NC(=O)c1cc(-c2ccc(Br)cc2)[nH]n1	8.59
Cc1ccc(Cn2c(=O)c3c(nc(NCCO)n3C)n(C)c2=O)cc1	-3.24
CCO/C(O)=C1/C(C)=NC(=S)NC1c1ccc([N+](=O)[O-])cc1 (centres unmarked)	-0.261
COC(=O)c1sccc1NC(=O)c1cccc2c1SCCC2=O	3.17
CCOc1c(OC)cccc1C1C(C#N)=C(N)Oc2[nH]nc(-c3ccccn3)c21 (centres unmarked)	2.67
Cc1ccc(OCC(=O)NCc2ccccc2)c(Br)c1	1.27
COc1ccc(CCNC(=O)c2sc3nc(-c4ccc(OC)cc4)ccc3c2N)cc1	-1.11
